# Measurements as given in PMC12040169 (PLOS Biology, 2025).
# The other results are listed elsewhere or left out.
# Tested on: T1, C. trachomatis L2/434/Bu expressing GFP (CTL2-GFP)
# T1 construct: L2/434/Bu GFP intracellular growth in HeLa cells
# Design: species or system HeLa; C. trachomatis total inclusion area by high-content imaging, normalised to DMSO
# Details: total inclusion area; 28.5 h, 10 µM; inhibitor
# Method in brief: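 High-content imaging followed the bulk GFP/resorufin measurement: fixed, Hoechst-stained cells were scored for GFP inclusions and host nuclei per well. Total inclusion area and count served as growth proxies, nuclei number as the viability proxy. MIC calculation matched the bulk assay.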
row,SMILES,% of control remaining
1,CC1CN(C2(n3nnc4ccccc43)CCC(C(C)(C)C)CC2)CC(C)O1 (stereo not shown) [CBK019373],90.7098
2,CCSc1cc(Nc2nc(Cl)cc(SCC)n2)nc(N)n1 [CBK005164],91.7798
3,COc1ccc(Nc2nc(Cl)nc(NCCN3CCOCC3)n2)cc1 [CBK027610],56.6816
4,FC(F)(F)c1ccnc(OCc2ccc(-c3ccccc3)cc2)c1 [CBK115826],93.8204
5,O=C1C2CCCN2S(=O)(=O)c2ccccc2N1Cc1ccccc1 (stereo not shown) [CBK284018],92.3701
6,Nc1cc(N)nc(SCC(=O)Nc2nonc2N)n1 [CBK267522],90.6565
7,O=C(O)c1sccc1NS(=O)(=O)Cc1ccccc1 [CBK004561],114.447
8,O=C(c1cc2c(s1)CCC2)N1CCc2c(nc[nH]c2=O)C1 [CBK283703],69.8137
9,CC(=O)N1CC[C@H]2NC(=O)CNC(=O)C3(CCCC[C@H]2C1)CCN(C(=O)c1ccc(C)nc1)CC3 [CBK292172],114.882
10,COC1C(O)C(CO)OC1n1ccc(NC(=O)c2ccccc2)nc1=O (stereo not shown) [CBK201212],82.5187
11,COc1ccccc1NS(=O)(=O)c1cc(S(=O)(=O)Nc2ccccc2OC)c(C)cc1C [CBK261493],112.03
12,Cc1ccc(CN(CCCN(C)C)Cc2nc(C)n3ccccc23)o1 [CBK282482],75.9663
13,CN(C)C(CNS(=O)(=O)c1ccc2[nH]c(=O)[nH]c(=O)c2c1)c1ccccc1Cl (stereo not shown) [CBK286385],123.448
14,N#Cc1ccc(C(=O)Nc2nnc(-c3ccccn3)o2)cc1 [CBK287428],129.373
15,O=C(NCCCN1CCN(Cc2ccccc2)CC1)c1cn2cc(C(F)(F)F)cc(Cl)c2n1 [CBK074654],86.6274
16,COc1ccccc1NC(=O)C1=C(C)NC(SCC(=O)Nc2ccc(C(=O)O)cc2)=C(C#N)C1c1cccs1 (stereo not shown) [CBK296139],74.2167
17,CC(C)Nc1cncc(OCCN2CCNCC2)n1 [CBK115601],100.072
18,CN(Cc1nccs1)C(=O)NC1CCN(Cc2cccc(O)c2)CC1 [CBK307657],64.9943
19,CCN1C(=O)C(F)(CC)C(=O)c2ccccc21 (stereo not shown) [CBK098854],123.775
20,CCc1nc(CC(=O)NC(C)C(O)c2ccc(F)cc2)cs1 (stereo not shown) [CBK304003],87.1998
21,O=C(Nc1ccc(Cl)cc1C(=O)O)c1ccccc1Cl [CBK000171],106.484
22,CCCNC(=O)Cn1nc(CC)n2c(cc3sccc32)c1=O [CBK284030],86.3315
23,Cn1c(SCC(=O)N2CCN(Cc3ccccc3)CC2)nnc1-c1cccc([N+](=O)[O-])c1 [CBK267154],118.25
24,CCNC(=O)[C@H]1CN(Cc2ccccc2)C[C@@H]1C(=O)c1ccccc1 [CBK285265],85.38
25,CCn1c(C)cc2cc(NS(=O)(=O)c3cn(C)nc3C)ccc21 [CBK282789],77.6469
26,O=C(c1ccc(F)cc1)C1CCN(C(=O)c2cccnc2NCc2ccc3c(c2)OCO3)CC1 [CBK160114],76.871

row,SMILES,% of control remaining
1,COc1cc(C#N)ccc1Oc1ccc([N+](=O)[O-])cn1 [CBK002569],100.481
2,CC(C)(C)c1cc(C(=O)N2CCN(c3ncccn3)CC2)n(Cc2ccc(Cl)cc2Cl)n1 [CBK107294],99.1397
3,Cc1cccc(OCCOc2ccc(Br)cc2/C=C2\SC(=N)NC2=O)c1 [CBK263958],96.7712
4,O=C(COc1cccc2ccccc12)N/N=C/c1ccco1 [CBK086853],86.9758
5,CN(C)CCN(C)C(=O)c1ccc(-c2cccc(OC(F)(F)F)c2)nc1N(C)C [CBK106081],115.497
6,c1csc(CSc2nnc3sc4ccccc4n23)c1 [CBK266291],103.843
7,OC(CN1CCC(O)(c2ccccc2F)CC1)c1ccc(F)cc1 (stereo not shown) [CBK282492],111.641
8,CN1CCC(C(=O)N2CCCc3ccccc32)CC1 [CBK200260],80.4764
9,Cc1ccc2cc(CN(CC(C)C)S(C)(=O)=O)c(O)nc2c1 [CBK269593],69.6525
10,CC(C)C1OC(NCCN2CCOCC2)=NC1=O (stereo not shown) [CBK074097T],85.4882
11,N#Cc1cccc(-c2cnc(N)c(-c3ccc(O)cc3)n2)c1 [CBK115630],95.1394
12,CCn1cc(C2CN(S(=O)(=O)c3cc(C)c(OC)cc3C)CCO2)cn1 (stereo not shown) [CBK304225],49.7901
13,CCCn1c(=O)c(C(=O)NCCN(CC)CC)c(O)c2cc(Br)ccc21 [CBK291118],80.4149
14,N=C1OC2CSCC2N1C(=O)Cc1ccccc1Cl (stereo not shown) [CBK284516],95.9318
15,Cn1ncc(N2CCC(CNC(=O)COc3ccc(Cl)cc3)C2)cc1=O (stereo not shown) [CBK306517],108.816
16,CC(=O)Nc1cccc(CN(CCCO)C2CCc3ccccc32)c1 (stereo not shown) [CBK304011],93.4808
17,CCn1cnc2cc(NC(=O)CC(C)n3nc(C)cc3C)ccc21 (stereo not shown) [CBK281401],106.027
18,CN(C)Cc1cc(C[C@@H]2C[C@H](NS(=O)(=O)c3ccccc3)C2(C)C)no1 [CBK289307],111.495
19,CC1CN(c2cc(CNc3nc4ccccn4c3C#N)ccn2)CCO1 (stereo not shown) [CBK306423],46.1137
20,c1ccc([C@@H]2CN(CC3CCOC3)C[C@H]2c2cc[nH]n2)cc1 (stereo partly shown) [CBK285163],79.8049
21,O=C(Cn1cccnc1=O)NC(c1ccc2c(c1)CCO2)C1CC(O)C1 (stereo not shown) [CBK306595],82.956
22,O=C(O)C1CC(O)CN1S(=O)(=O)c1ccc(Cl)cc1 (stereo not shown) [CBK266106],81.2409
23,CCN(CC)CCOC(=O)C1(c2ccccc2)CCOc2ccccc21 (stereo not shown) [CBK009850C],102.633
24,CC(=O)OCC(=O)Nc1ccc2cc(Br)cnc2n1 [CBK063311],87.5038
25,COc1ccc(-c2nc(-c3cccs3)cnc2N)cc1OC [CBK063981],136.396
26,CCc1nc2ccc(C(=O)NC3CCN(C)CC3)cn2c1N(C)C=O [CBK146594],76.5446
